Reference: patent publication US20240269278A1, “ANTI-CD47 ANTIBODY FOR COMBINED TREATMENT OF BLOOD TUMOR” (Nanjing Shunxin Pharmaceuticals Co., Ltd. of Chiatai …, priority 2021, published 2024)

B1: Xi3F10: chimeric anti-CD47 antibody, heavy chain SEQ ID NO: 101, light chain SEQ ID NO: 103 (antibody)
heavy: EVQLQQSVAELMKPGASVKIYCKATGYTFSRYWIEWVKQRPGHGLEWIGEFIPGSDTTNFNEKFKGKATFTAEISSNTAYMQLSSLTSEDSAVYFCARGGLRRMDYWGQGTSVTVSSASTKGPSVFPLAPCSRSTSESTAALGCLVKDYFPEPVTVSWNSGALTSGVHTFPAVLQSSGLYSLSSVVTVPSSSLGTKTYTCNVDHKPSNTKVDKRV[omitted - human IgG4 Fc with S228P (EU numbers)]
light: DIVMTQTPAIMSASPGEKVTMTCRASSSVSSTYLHWYQQKSGASPKLWIYTTSTLASGVPARFSGSGSGTSYSLTISSVEAEDAATYYCQQFSDSTWTFGGGTKLEIKRTVAAPSVFIFPPSDEQLKSGTASVVCLLNNFYPREAKVQWKVDNALQSGNSQESVTEQDSKDSTYSLSSTLTLSKADYEKHKVYACEVTHQGLSSPVTKSFNRGEC
modifications: Heavy chain; Light chain
B2: Xi16E5: chimeric anti-CD47 antibody, heavy chain SEQ ID NO: 93, light chain SEQ ID NO: 95 (antibody)
heavy: EVQLQQSGPELKKPGETVKISCKASGYTFTNYGMNWVKQVPGKGLKWMGWINTNTGEPTYAEEFKGRFAFSLETSARTAFLQINNLKNEDTATYFCTRFSHLRGPMDYWGQGASVTVSSASTKGPSVFPLAPCSRSTSESTAALGCLVKDYFPEPVTVSWNSGALTSGVHTFPAVLQSSGLYSLSSVVTVPSSSLGTKTYTCNVDHKPSNTKVDKRV[omitted - human IgG4 Fc with S228P (EU numbers)]
light: DAVMTQTPLSLPVSLGDQASISCRSSQSLVHSNGYTYLHWYLQKPGQSPKLLIYKVSNRFSGVPDRFSGSGSGTDFTLKISRLEAEDLGVYFCSQSTHVPPTFGGGTKLEIKRTVAAPSVFIFPPSDEQLKSGTASVVCLLNNFYPREAKVQWKVDNALQSGNSQESVTEQDSKDSTYSLSSTLTLSKADYEKHKVYACEVTHQGLSSPVTKSFNRGEC
modifications: Heavy chain; Light chain
B3: Xi14A9: chimeric anti-CD47 antibody, heavy chain SEQ ID NO: 105, light chain SEQ ID NO: 107 (antibody)
heavy: EVQLQQSGAEVARPGASVKLSCTVSGFNIEDDYIEWVKQRPEQGLEWIGRIDPANDKTKYAPKFQDKATITGDTSSNTAYLQLSSLTSEDTAVYYCTRPGLRRYYSMDYWGQGTSVTVSSASTKGPSVFPLAPCSRSTSESTAALGCLVKDYFPEPVTVSWNSGALTSGVHTFPAVLQSSGLYSLSSVVTVPSSSLGTKTYTCNVDHKPSNTKVDKRV[omitted - human IgG4 Fc with S228P (EU numbers)]
light: NIVLTQSPKSMSMSVGERVTLSCKASENVVSYVSWYQQKPEQSPKLLIYGASNRYTGVPDRFIGSGSSTDFTLIISSFQPEDLADYHCGQSYSYPLTFGAGTKLELKRTVAAPSVFIFPPSDEQLKSGTASVVCLLNNFYPREAKVQWKVDNALQSGNSQESVTEQDSKDSTYSLSSTLTLSKADYEKHKVYACEVTHQGLSSPVTKSFNRGEC
modifications: Heavy chain; Light chain
B4: hz14A9-2.4: humanized anti-CD47 antibody, heavy chain SEQ ID NO: 185, light chain SEQ ID NO: 187 (antibody)
heavy: QVQLVQSGAEVKKPGASVKVSCKVSGFNIEDDYIEWVRQAPGQGLEWMGRIDPANDKTKYAQKFQGRVTMTGDTSTNTVYMELSSLRSEDTAVYYCTRPGLRRYYSMDYWGQGTLVTVSSASTKGPSVFPLAPCSRSTSESTAALGCLVKDYFPEPVTVSWNSGALTSGVHTFPAVLQSSGLYSLSSVVTVPSSSLGTKTYTCNVDHKPSNTKVDKRV[omitted - human IgG4 Fc with S228P (EU numbers)]
light: DIQMTQSPSSLSASVGDRVTITCKASENVVSYVSWYQQKPGKAPKLLIYGASNRYTGVPSRFIGSGSSTDFTLTISSLQPEDFATYYCGQSYSYPLTFGQGTKLEIKRTVAAPSVFIFPPSDEQLKSGTASVVCLLNNFYPREAKVQWKVDNALQSGNSQESVTEQDSKDSTYSLSSTLTLSKADYEKHKVYACEVTHQGLSSPVTKSFNRGEC
modifications: heavy chain; light chain
B5: Xi2B2: chimeric anti-CD47 antibody, heavy chain SEQ ID NO: 97, light chain SEQ ID NO: 99 (antibody)
heavy: EVMLVESGGGLVQPGGSLKLSCAASGFTFSNYYMSWVRQTPEKRLEWVAYISSGGGSTYYPDSVKGRFTISRDNAKNTLYLQMSSLKSEDTAMYYCAWFAYWGQGTLVTVSAASTKGPSVFPLAPCSRSTSESTAALGCLVKDYFPEPVTVSWNSGALTSGVHTFPAVLQSSGLYSLSSVVTVPSSSLGTKTYTCNVDHKPSNTKVDKRV[omitted - human IgG4 Fc with S228P (EU numbers)]
light: DAVVTQTPLTLSVTIGQPASISCKSSQSLLDSDGKTYLNWLLQRPGQSPKRLIYLVSKLDSGVPDRFTGSGSGTDFTLKISRVEAEDLGVYYCWQGTHFPLTFGAGTKLELKRTVAAPSVFIFPPSDEQLKSGTASVVCLLNNFYPREAKVQWKVDNALQSGNSQESVTEQDSKDSTYSLSSTLTLSKADYEKHKVYACEVTHQGLSSPVTKSFNRGEC
modifications: Heavy chain; Light chain
B6: Xi2H8: chimeric anti-CD47 antibody, heavy chain SEQ ID NO: 89, light chain SEQ ID NO: 91, IgG4 (S228P) (antibody)
heavy: QVQLKESGPGLVAPSQSLSITCTVSGFSLTNYGVHWVRQPPGKGLEWLGIIWAGGSTNYNSALMSRLSISKDNSKSQVFLKMNSLQTDDTAMYYCARDDYASMDYWGQGTSVTVSSASTKGPSVFPLAPCSRSTSESTAALGCLVKDYFPEPVTVSWNSGALTSGVHTFPAVLQSSGLYSLSSVVTVPSSSLGTKTYTCNVDHKPSNTKVDKRV[omitted - human IgG4 Fc with S228P (EU numbers)]
light: B2 light with V3F, Y35N, L83V, P101Y, F103L
modifications: Heavy chain; Light chain
B7: hz3F10-4.1: humanized anti-CD47 antibody, heavy chain SEQ ID NO: 121, light chain SEQ ID NO: 123 (antibody)
heavy: QVQLVQSGAEVKKPGSSVKVSCKASGYTFSRYWIEWVRQAPGQGLEWMGEFIPGSDTTNYAQKFQGRVTITADISTSTAYMELSSLRSEDTAVYYCARGGLRRMDYWGQGTLVTVSSASTKGPSVFPLAPCSRSTSESTAALGCLVKDYFPEPVTVSWNSGALTSGVHTFPAVLQSSGLYSLSSVVTVPSSSLGTKTYTCNVDHKPSNTKVDKRV[omitted - human IgG4 Fc with S228P (EU numbers)]
light: DIQMTQSPSSLSASVGDRVTITCRASSSVSSTYLHWYQQKPGKAPKLLIYTTSTLASGVPSRFSGSGSGTSYTLTISSLQPEDFATYYCQQFSESTWTFGQGTKLEIKRTVAAPSVFIFPPSDEQLKSGTASVVCLLNNFYPREAKVQWKVDNALQSGNSQESVTEQDSKDSTYSLSSTLTLSKADYEKHKVYACEVTHQGLSSPVTKSFNRGEC
modifications: heavy chain; light chain

tested on: HL60 cells; test: Promotion of macrophage phagocytosis of tumor cells (flow cytometry); assay type: cell-based, human; conditions: 1 μg/mL antibody, CFSE-labeled HL60 cells, human macrophages
Protocol: The ability of the anti-CD47 antibodies to promote the phagocytosis of tumor cells by macrophages having SIRPα on the cell surface was determined based on flow cytometry.
Monocytes were isolated from human peripheral blood mononuclear cells (PBMC, Sailybio, Cat. No. 190056) using a monocyte isolation kit ([…], Cat. No. 19058), plated into a 24-well plate (Greiner bio-one, Cat. No. 662-160) at […] cells per well, and induced under 100 ng/mL stimulating factor M-CSF (R&D Systems, Cat. No. 216-MC-010) for 7 days to form macrophages. 1×10^6 target cells HL60 (Shanghai Institute of Biochemistry and Cell Biology, Chinese Academy of Sciences, Cat. No. TCHu23) were suspended in […] CFSE (BD Biosciences, Cat. No. 565082) fluorescent dye (diluted with a PBS buffer to the desired concentration), incubated in a water bath at 37° C. in the dark for 15 min, and washed with a PBS buffer to prepare CFSE-labeled HL60 cells, which were then incubated with each of 10 μg/mL and 1 μg/mL anti-CD47 antibodies (see Table 3 for chimenic antibodies, and see Table 4 for humanized antibodies) in an incubator at 37° C. with 5% CO2 for 1-2 h. The HL60 cells after the incubation were washed three times with a PBS buffer and added to the macrophages. The cells were incubated in an incubator at 37° C. with 5% CO2 for 2-4 h. After the cells were washed three times with a PBS buffer, a mixture of 1260 μL of PBS, 20 μL of anti-APC-CD14 (APC MouseAnti-Human CD14, BD Biosciences, Cat. No. 555399), and 20 μL of PE-CD11b (PE Mouse Anti-Human CD11b/1Mac-1, BD Biosciences, Cat. No. 555388) antibody was added to each well. The cells were incubated at 4° C. in the dark for 30 min, washed three times with a PBS buffer, and digested with trypsin (Gibco, Cat. No. 12604-013). The rate of phagocytosis (%) by the macrophages was determined using a flow cytometer (BD Biosciences, model: C6).

| Molecule | rate of phagocytosis |
| --- | --- |
| B1 | 65.7% |
| B2 | 11.5% |
| B3 | 54.17% |
| B4 | 81.65% |
| B5 | 7.3% |
| B6 | 7.1% |
| B7 | 50.26% |

same assay, conditions: 10 μg/mL antibody, CFSE-labeled HL60 cells, human macrophages

| Molecule | rate of phagocytosis |
| --- | --- |
| B1 | 59.8% |
| B2 | 28.8% |
| B3 | 44.67% |
| B4 | 81.66% |
| B5 | 4.1% |
| B6 | 3.5% |
| B7 | 58.26% |

same assay, conditions: 10 and 1 μg/mL

| Molecule | promotion of phagocytosis (in words) |
| --- | --- |
| B1 | good promoting effects on phagocytosis |
| B2 | good promoting effects on phagocytosis |
| B3 | good promoting effects on phagocytosis |
| B4 | better performance |

tested on: not listed separately; test: Thermostability assay based on Nano DSF (Prometheus NT.48); assay type: physicochemical; conditions: not given
Protocol: The high-throughput protein stability analyzer Prometheus NT.48 is an instrument for acquiring various types of data such as protein molecular structure stability, aggregation stability, and colloid dispersion stability. The melting temperatures (Tm) and the aggregation temperatures (Tagg) of the anti-CD47 chimeric antibodies and the anti-CD47 humanized antibodies were determined using this instrument.

| Molecule | Tagg (aggregation temperature) | Tm (melting temperature) |
| --- | --- | --- |
| B1 | 70.59 °C | 70.51 °C |
| B2 | 73.39 °C | 69.89 °C |
| B3 | 75.75 °C | 66.73 °C |
| B4 | 68.3 °C | 68.3 °C |
| B5 | 61.34 °C | 62.99 °C |
| B6 | 68.57 °C | 69.77 °C |
| B7 | 62.54 °C | 68.35 °C |

Changes are numbered by the printed parent chain. Names may count otherwise.
